Measured values from PubChem BioAssay AID504832 (National Center for Advancing Translational Sciences (NCATS), 2011).
“And” between values parts separate entries of the source, which are not always exact repeats. Equal values may be shown once. Among all 310,000 compounds or so, about 18,000 (5.8%) were called active. The shares of active, inactive and inconclusive entries below differ from those in the screen. Calls follow the shape of the dose curve; as a rule, active = well fitted inhibition curve with a large enough effect; inconclusive = small, poorly fitted or top-dose-only effect, or another doubt; inactive = no such curve, though single readings can be large or run the other way. Where the call is inconclusive, the potency comes from a doubtful curve fit.

Assay: Primary qHTS for delayed death inhibitors of the malarial parasite plastid, 48 hour incubation
Settings: P. falciparum luciferase growth in erythrocytes; series mostly up to 28.7 µM
How it was run: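 In quantitative HTS format, infected erythrocytes bearing luciferase-reporter parasites were treated for a single generation at 37 C. Luminescence after adding detection reagent served as the growth measure.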
Potency is read from the fitted curve at half-maximal effect; tags tell the direction and shape of the fitted curve.

Row | Structure (SMILES) | Potency
1 | CN(CC(=O)NC1CC1)S(=O)(=O)c1ccc(Br)cc1 | active: 8.28 µM
2 | NS(=O)(=O)c1ccc(N2N=C(c3ccc(Br)cc3)CC2c2ccc(F)cc2)cc1 (stereo unspecified) | inconclusive: 11.7 µM [inhibitor, single point]
3 | COc1cccc(CN(c2ccc3c(c2)CCC3)S(=O)(=O)c2ccc(-n3cnnn3)c(OC)c2)c1 | inconclusive: 0.738 µM [inhibitor, full curve, poor fit]
4 | Cc1ccc(CN2CC(C(=O)N3CCN(S(=O)(=O)c4ccccc4)CC3)CC2=O)cc1 (stereo unspecified) | inconclusive: 13.1 µM [inhibitor, single point]
5 | N#Cc1c(C(F)(F)F)cc(-c2cccs2)nc1SCc1ccc(Cl)nc1 | inconclusive: 14.7 µM [inhibitor, single point]
6 | Cc1sc2ncnc(N3CCCCC3)c2c1C | inactive
7 | CC/C(=N/Nc1cccc(Cl)c1)c1cnnc(SC)n1 | inconclusive: 10.4 µM [inhibitor, single point]
8 | Cc1ccc2c(c1)nnn2C1CCN(CC(=O)NCCc2ccccc2)CC1 | inconclusive: 8.28 µM [inhibitor, partial curve, poor fit]
9 | O=C(O)/C=C/c1cn(-c2ncc(C(F)(F)F)cc2Cl)c2ccccc12 | inconclusive: 0.0033 µM [inhibitor, full curve, poor fit]
10 | CCc1ccc(C(C)NC(=O)c2ccc(F)cc2)cc1 (stereo unspecified) | inactive
11 | O=C(CNC(=O)c1[nH]cnc1C(=O)N[C@@H](Cc1ccccc1)C(=O)OCc1ccccc1)OCc1ccccc1 | inactive
12 | CC(C)n1c(O)c(N=NC(=O)Cc2csc(N3CCOCC3)n2)c2ccccc21 | active: 13.1 µM
13 | Cc1ccc(-n2nnc(-c3nccs3)n2)cc1 | inactive
14 | COCCN1C(=NCCCOC(C)C)N[C@@H](c2ccccc2)C(C(=O)OC)=C1C | inactive and inconclusive: 18.5 µM [inhibitor, single point]
15 | COc1ccc(N/C(N)=N/c2nc(C)cc(=O)[nH]2)cc1 | inconclusive: 18.5 µM [inhibitor, single point]
16 | CCNC(=O)NC(=O)C(C)Oc1ccc(Br)cc1Br (stereo unspecified) | inactive
17 | CC(C)S(=O)(=O)c1ccc(C(=O)Nc2ccc(F)cc2F)cn1 | inactive
18 | COc1ccc(N(C=O)C(=S)SC)cc1 | inactive
19 | CN(CC#CCC(c1ccccc1)c1ccccc1)C(C)(C)C | active: 9.28 µM
20 | O=C(NCCN1CCOCC1)c1ccc2c(c1)N(Cc1cccc(F)c1)C(=O)c1ccccc1S2 | inconclusive: 0.522 µM [inhibitor, full curve, poor fit]
21 | COc1ccc(N2CCN(C(=O)c3cc(S(=O)(=O)N4CCCCCC4)ccc3OC)CC2)cc1 | active: 11.7 µM
22 | Cc1noc(C)c1COC(=O)c1cccnc1SCC(=O)Nc1ccc2c(c1)OCO2 | inconclusive: 10.4 µM [inhibitor, partial curve]
23 | CCOC(=O)Cc1nnc(Nc2ccc(C)cc2)c2ccccc12 | inactive
24 | COc1cc(NC(=O)c2ccccc2C)c(OC)cc1NC(=O)CN1CCOCC1 | inconclusive: 0.415 µM [inhibitor, single point]

Row | Structure (SMILES) | Potency
25 | COc1ccc(/C=C/CN2CCCC(CCC(=O)NCc3ccc(F)c(F)c3)C2)cc1 (stereo unspecified) | active: 13.1 µM
26 | COc1ccc(-c2nnc(NC(=O)c3ccc(S(=O)(=O)N4CCCc5ccccc54)cc3)o2)cc1 | active: 11.7 µM
27 | COc1cccc(N(C(=O)CNC(=O)c2ccco2)C(C(=O)NC2CCCCC2)c2cccnc2)c1 (stereo unspecified) | inactive
28 | CCOC(=O)C1=C(CP(=O)(c2ccccc2)c2ccccc2)NC(=O)NC1c1ccc(OC)cc1 (stereo unspecified) | inconclusive: 13.1 µM [inhibitor, single point]
29 | Cc1ccc(CC(=O)N/N=C/c2ccc3c(c2)OCO3)cc1 | inactive
30 | COc1cccc(NC(=O)N2CCN(C(=O)C(Cc3ccc(OC)c(OC)c3)NC(C)=O)CC2)c1 (stereo unspecified) | inactive
31 | C/C(=N\NC(=O)c1ccc(C(=O)N/N=C(\C)c2ccco2)o1)c1ccco1 | inconclusive: 8.28 µM [inhibitor, partial curve]
32 | CSc1ncccc1C(=O)Nc1cccc(S(=O)(=O)N2CCCCC2)c1 | active: 11.7 µM
33 | Cc1cc(C)cc(NC(=S)NCC2CCN(C(C)c3ccccc3)C2)c1 (stereo unspecified) | inconclusive: 0.465 µM [inhibitor, full curve, poor fit]
34 | COC(=O)c1ccccc1NC(=O)Cn1c(=O)n(Cc2ccccc2)c(=O)c2c(C)c(C)sc21 | inconclusive: 13.1 µM [inhibitor, single point]
35 | CCN(Cc1ccccc1)C(=O)C1CCN(S(=O)(=O)c2ccc3c(c2)OCCO3)CC1 | inconclusive: 0.104 µM [inhibitor, full curve, poor fit]
36 | Cc1ccccc1NC(=O)Nc1cc(-c2ccccc2)nn1C | inactive
37 | CN(C)Cc1cc(CCNC(=O)c2ccc(Cl)cc2)ccc1O | inconclusive: 18.5 µM [inhibitor, single point]
38 | CCc1nnc(NC(=O)CSc2nc3cccnc3n2C2CCCCC2)s1 | inconclusive: 9.28 µM [inhibitor, single point]
39 | CC1CN(c2ccc([N+](=O)[O-])nc2)CC(C)O1 (stereo unspecified) | inactive
40 | COc1ccccc1-n1cc(C(=O)c2cc(Cl)ccc2O)cc(C#N)c1=O | inconclusive: 14.7 µM [inhibitor, partial curve, poor fit]
41 | COc1ccc(NC(=O)c2c(Nc3ccccc3)sc(C(=O)c3ccc(F)cc3)c2N)cc1 | inconclusive: 18.5 µM [inhibitor, single point]
42 | COc1ccc(NC(=O)CCN2CC(C)OC(C)C2)c(OC)c1 (stereo unspecified) | inconclusive: 3.7 µM [inhibitor, single point]
43 | CCc1nonc1NC(=O)c1oc2c(C)c(C)ccc2c1C | inconclusive: 1.17 µM [inhibitor, full curve]
44 | Cc1ccc(NC(=O)c2cccc(S(=O)(=O)N(C)C3CCCCC3)c2)nc1 | active: 5.22 µM
45 | CC(/C=C/c1ccccc1)=N\Nc1nc(C)cc(C)n1 | inconclusive: 10.4 µM [inhibitor, single point]
46 | Cc1ccc(CCNC(=O)C2CCCN2S(=O)(=O)c2ccc3c(c2)CCC(=O)N3)cc1 (stereo unspecified) | inconclusive: 13.1 µM [inhibitor, partial curve]
47 | CCOC(=O)c1c(NC(=O)CCCN2CCOCC2)sc2c1CC(C)(C)OC2 | inconclusive: 10.4 µM [inhibitor, single point]
48 | O=C1CSCN1c1cc(Cl)ccc1Cl | inactive

Row | Structure (SMILES) | Potency
49 | CCn1c(COc2ccccc2)nnc1SCC(=O)NC1CCCCC1 | active: 2.94 µM
50 | COC(=O)Cn1nnc(-c2cccc(OC)c2)n1 | inactive
51 | COc1ccc(Cl)cc1Nc1ncnc2sc(C)c(S(=O)(=O)N3CCC(C)CC3)c12 | inconclusive: 10.4 µM [inhibitor, single point]
52 | Cc1nn2c3ccccc3n(CC(=O)c3cccs3)c2nc1=O | inactive
53 | CCOC(=O)c1cc2c(ccn2C)n1CC(=O)N(Cc1ccccc1)c1ccc(F)cc1 | inconclusive: 9.28 µM [inhibitor, partial curve, poor fit]
54 | NC(=O)c1c(NC(=O)CN2CCN(S(=O)(=O)c3ccccc3)CC2)sc2c1CCC2 | inconclusive: 18.5 µM [inhibitor, partial curve, poor fit]
55 | Cc1ccc(NC(=O)Cc2ccccc2F)cc1S(=O)(=O)N1CCCCCC1 | inconclusive: 5.86 µM [inhibitor, partial curve]
56 | Nc1c(C(=O)NCc2ccco2)c2nc3ccccc3nc2n1CCc1ccccc1 | inconclusive: 18.5 µM [inhibitor, single point]
57 | CC(C)Cn1cc(C(=O)NC2CCN(Cc3ccccc3)CC2)c2c3ccccc3n(C)c2c1=O | active: 2.62 µM
58 | COc1ccc2oc(C(=O)OCC(=O)N3CCN(S(=O)(=O)c4ccccc4)CC3)c(C)c2c1 | inconclusive: 18.5 µM [inhibitor, single point]
59 | O=C(O)c1cccc(-n2c(O)c(C=C3N=c4ccccc4=N3)sc2=S)c1 | active: 11.7 µM
60 | CCc1cccc(NC(=S)N(CCOC)C(C)c2ccco2)c1 (stereo unspecified) | inactive
61 | CCn1c(SCC(=O)Nc2ccc3c(c2)OCO3)nc2c(c1=O)SC(C)C2 (stereo unspecified) | inconclusive: 18.5 µM [inhibitor, single point]
62 | COc1ccc(-c2cc(-c3ccc(Cl)cc3)n[nH]2)c(O)c1 | inconclusive: 10.4 µM [inhibitor, single point]
63 | O=P(O)(O)c1cc(-c2ccccc2)oc1-c1ccccc1 | inconclusive: 13.1 µM [inhibitor, single point]
64 | CCOc1ccccc1N1CCN(C(=O)c2cc(-c3cccnc3)nc3c(Cl)cccc23)CC1 | active: 3.29 µM
65 | COc1ccc(CCN(C)CC(O)COc2c(C)ccc(C)c2C)cc1OC (stereo unspecified) | active: 14.7 µM
66 | Cc1ccc(O)c(-c2cc3ccccc3[nH]2)c1 | inconclusive: 1.17 µM [inhibitor, full curve]
67 | N#CCC(=O)N/N=C/c1ccc(N2N=C(c3ccccc3)CC2c2ccccc2)cc1 (stereo unspecified) | inconclusive: 18.5 µM [inhibitor, single point]
68 | NC(=O)[C@@H]1CCNc2c(I)cc([N+](=O)[O-])cc2C(=O)N[C@@H](CO)C(=O)N[C@@H](Cc2ccc(O)cc2)C(=O)N1 | inactive
69 | Cc1ccc2sc(N(CCCN(C)C)C(=O)c3ccc(S(=O)(=O)N4CCOCC4)cc3)nc2c1C | active: 13.1 µM
70 | COc1ccc(CCCNC(=O)C2CCC(=O)N(CCCN3CCCC3=O)C2)cc1 (stereo unspecified) | inactive
71 | O=C(Nc1ccc(Oc2cccnc2)cc1)C1CCN(Cc2ccccc2F)CC1 | inconclusive: 16.5 µM [inhibitor, single point]
